Experimental data: paper PMC12040169 (PLOS Biology, 2025)
Some of the results follow.

System: T1, C. trachomatis L2/434/Bu expressing GFP (CTL2-GFP)
T1 construct: L2/434/Bu GFP intracellular growth in HeLa cells
Set-up: species or system HeLa; C. trachomatis total inclusion area by high-content imaging, normalised to DMSO
Details: total inclusion area; 28.5 h, 10 µM; inhibitor
Outline: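 Post-fluorescence-read fixation, DNA staining with Hoechst and high-content imaging; GFP inclusion area and number per well, and nuclei counts, used as proxies for bacterial growth and host viability.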

Going from Cc1ccc(-c2nnc(CNC(=O)C(c3ccccc3)c3ccccc3)o2)s1 [CBK286299] to O=C(NC(C(=O)N/N=C/c1ccc(Cl)cc1Cl)c1n[nH]c(=O)c2ccccc12)c1ccccc1 (stereo not drawn) [CBK261118], the “% of control remaining” value falls from 111.085 to 105.865.

Compared with Oc1cccc(-c2cc(CC3(NCc4cnc5ccccc5c4)COC3)no2)c1 [CBK289662], O=C(C1=C(O)C(=O)N(CCN2CCOCC2)C1c1ccccn1)c1cc2ccccc2o1 (stereo not drawn) [CBK269576] is higher in “% of control remaining” value: 81.0081 for the first, 104.19 for the second.

First: O=C(Cc1c[nH]c2ccccc12)Nc1cnc(-c2cccc(OC(F)(F)F)c2)c(-c2cccnc2)n1 [CBK036863]
Second: FC(F)(F)c1ccc(Sc2cccc3ccccc23)nc1 [CBK089553]
The “% of control remaining” value of the first is higher: 138.081 for the first, 112.974 for the second.

Going from COc1ccc(NC(=O)CC2SC(NC3CCCCC3)=NC2=O)c(OC)c1 (stereo not drawn) [CBK059502] to Nc1ncc(-c2ccncc2)nc1NC1CCCCC1 [CBK063604], the “% of control remaining” value rises from 77.6073 to 83.9491.

First: COc1cc(-c2cncc(NCc3cccc(Cl)c3)n2)cc(OC)c1OC [CBK065284]
Second: COc1ccc(OC)c(NS(=O)(=O)c2ccccc2)c1 [CBK099989]
The “% of control remaining” value of the first is lower: 89.2525 for the first, 92.7491 for the second.

Compared with CCC(=O)N1C[C@@H](N(C)C)[C@H](c2cn(C)c3ccccc23)C1 [CBK285008], CCN(C(=O)Cn1c(=O)cc(C)c2ccccc21)C1CCN(C)CC1 [CBK281871] is lower in “% of control remaining” value: 117.28 for the first, 111.88 for the second.

Going from Cc1ccc(-c2csc(NC(=O)c3cccnc3)n2)cc1 [CBK072677] to Cc1noc(C)c1C(=O)NC(Cc1ccsc1)c1cccnc1 (stereo not drawn) [CBK285100], the “% of control remaining” value rises from 51.6493 to 102.594.

Going from COCC(=O)N1CCc2sccc2C1c1ccc(NC(=O)c2ccccc2F)cc1 (stereo not drawn) [CBK286469] to CS(=O)(=O)Nc1nn(-c2ccc(NC(=O)c3ccno3)cc2)c2ccccc12 [CBK048591], the “% of control remaining” value falls from 103.502 to 63.8719.

First: O=S(=O)(c1ccccc1)N(CC(O)CN1CCCC1)c1cccc2ccccc12 (stereo not drawn) [CBK264464C]
Second: O=C(CCS(=O)(=O)c1ccccc1)Nc1cc2ccccc2c(N2CCNCC2)n1 [CBK028419T]
The “% of control remaining” value of the first is higher: 104.832 for the first, 78.0632 for the second.

Going from Cc1cc(CNC(=O)CCn2ccc(C)n2)on1 [CBK281485] to Cc1[nH]c2c(C(=O)NCCCC3CCOC3)cccc2c1C (stereo not drawn) [CBK282551], the “% of control remaining” value rises from 96.8107 to 103.876.

First: Cn1nc(C(F)(F)F)c(C#N)c1Oc1ccc(C(C)(C)C)cc1 [CBK007398]
Second: COc1cccc(C(=O)N2CCC(NC(=O)c3ccccc3C(F)(F)F)CC2)c1 [CBK155024]
The “% of control remaining” value of the first is lower: 28.5975 for the first, 94.4089 for the second.

Compared with COc1ccccc1[C@@H]1C[C@H](OC(=O)c2ccc(F)cc2)C(=O)N1C [CBK283598], COc1c[nH]c(C(=O)NC(CCn2ccnc2)c2ccccc2)cc1=O (stereo not drawn) [CBK306743] is lower in “% of control remaining” value: 87.713 for the first, 81.8966 for the second.

Compared with Cc1ccc(Cc2cnc(NC(=O)c3ccoc3C)s2)cc1C [CBK298277], Cc1cnc(CNS(=O)(=O)c2ccc(C(C)C)cc2)cn1 [CBK044615] is lower in “% of control remaining” value: 71.0519 for the first, 55.4524 for the second.

Compared with CC(Cc1cccs1)NC(=O)C(C)n1ccnc1 (stereo not drawn) [CBK282050], N#Cc1ccc(SCCOC(=O)c2cccs2)c([N+](=O)[O-])c1 [CBK066853] is higher in “% of control remaining” value: 94.6753 for the first, 118.139 for the second.

Compared with Cn1cc(C2CCCN2C(=O)c2cccc(C#N)c2)cn1 (stereo not drawn) [CBK304849], O=C(c1ccccc1)N1CCN(c2ccc(-n3cccn3)nn2)CC1 [CBK287662] is higher in “% of control remaining” value: 34.9606 for the first, 93.2772 for the second.

Going from CC(C)CN1CC2(CCN(C(=O)OCc3ccccc3)CC2)c2ccccc21 [CBK022626C] to CS(=O)(=O)c1ccc(-c2ccc3c(c2)COC(C2CCN(C(=O)OCc4ccccc4)CC2)O3)cc1 (stereo not drawn) [CBK144643], the “% of control remaining” value falls from 83.7781 to 48.8053.

Going from CC(C)COC(=O)n1ccc(C(=O)N2CCCCC2)n1 [CBK058828] to CC(C)C(=O)N1N=C2CCCCC2C1(O)C(F)(F)F (stereo not drawn) [CBK028091], the “% of control remaining” value rises from 55.0714 to 92.312.

First: CN(C)CCN1CCN(c2nc(-c3cccc4ccccc34)cnc2N)CC1 [CBK063479]
Second: COCCNc1nc(-c2ccccc2)ccc1C(=O)N(C)CCN(C)C [CBK105913]
The “% of control remaining” value of the first is higher: 92.8389 for the first, 83.6252 for the second.

First: CC1(C)CC(NS(=O)(=O)c2ccc(Br)cc2)CC(C)(C)N1 [CBK266805]
Second: CS(=O)(=O)c1ccc(-c2c[nH]c([C@@H]3COCCN3C3CCCCC3)n2)cc1 [CBK289299]
The “% of control remaining” value of the first is higher: 114.683 for the first, 94.7681 for the second.

Compared with CC(Oc1cccc(Cl)c1)C(=O)N/N=C/c1cccc(Oc2ccccc2)c1 (stereo not drawn) [CBK262113], Clc1ccc(COc2nccnc2OCc2cccnc2)cc1Cl [CBK161597] is lower in “% of control remaining” value: 100.916 for the first, 73.8028 for the second.

Going from Cc1[nH]c(=O)[nH]c(=O)c1CC(=O)N1Cc2cc(Cl)ccc2OC2(CCOCC2)C1 [CBK286341] to CC1CC1C(=O)NCC(=O)N1CCN(S(=O)(=O)c2ccccc2[N+](=O)[O-])CC1 (stereo not drawn) [CBK296747], the “% of control remaining” value rises from 106.459 to 113.551.

Going from Fc1ccc(-c2ccc(CNCCCN3CCOCC3)o2)cc1 [CBK278199C] to OCCN1CCN(c2nccc(C(F)(F)F)n2)CC1 [CBK028754], the “% of control remaining” value rises from 100.935 to 102.003.

Going from CCCn1c(SCC(=O)N(C)Cc2ccc(OCC)cc2)n[nH]c1=O [CBK295132] to CCOC(=O)C1CCCN(Cc2ccc(OC)cc2)C1 (stereo not drawn) [CBK304413], the “% of control remaining” value falls from 108.542 to 66.5701.

First: O=C(O)C1C2CCC(O2)C1C(=O)NCc1ccco1 (stereo not drawn) [CBK263675]
Second: C#Cc1cn([C@H]2C[C@@H](O)[C@@H](CO)O2)c(=O)[nH]c1=O [CBK201207]
The “% of control remaining” value of the first is higher: 106.674 for the first, 95.6546 for the second.

Going from Cc1ccc2nc(N3CCCC(O)C3)c(CN3CCSCC3)cc2c1 (stereo not drawn) [CBK307000] to OCCn1ncc2c(SC3CCCCC3)ncnc21 [CBK269358], the “% of control remaining” value falls from 104.159 to 86.4567.

With CS(=O)(=O)c1ccc(-n2cc(-c3cccnc3)nn2)cc1 [CBK113061] the “% of control remaining” value was 110.233.
